Assay [1] concerns the target T1, 3XFLAG::EVA-1 (HEK293T) (C. elegans) (UniProt Q9XU98).
T1 sequence: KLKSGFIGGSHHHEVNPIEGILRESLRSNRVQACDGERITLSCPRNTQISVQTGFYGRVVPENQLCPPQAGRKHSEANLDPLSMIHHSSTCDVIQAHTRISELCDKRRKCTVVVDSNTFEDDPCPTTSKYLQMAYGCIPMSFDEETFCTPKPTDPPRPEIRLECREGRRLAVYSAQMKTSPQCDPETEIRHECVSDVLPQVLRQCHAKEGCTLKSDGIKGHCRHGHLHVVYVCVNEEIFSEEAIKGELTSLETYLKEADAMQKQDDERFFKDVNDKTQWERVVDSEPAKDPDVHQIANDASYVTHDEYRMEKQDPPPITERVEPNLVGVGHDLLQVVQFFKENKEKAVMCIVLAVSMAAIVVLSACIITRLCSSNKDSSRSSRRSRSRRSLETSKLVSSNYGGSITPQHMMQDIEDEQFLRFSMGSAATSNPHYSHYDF
The assay is described as follows: co-IP; FLAG-tagged receptor on transfected HEK293T cells incubated with 10x concentrated conditioned medium holding the HA- and Gaussia luciferase-tagged ligand, 4 hours at 4°C; cells lysed in TNTE buffer (0.5% Triton X-100), anti-FLAG immunoprecipitation, luciferase activity of the washed immunoprecipitate, normalised to receptor level.

Assay [2] addresses T2, 3XFLAG::PAT-2 (HEK293T) (C. elegans) (UniProt P34446).
T2 sequence: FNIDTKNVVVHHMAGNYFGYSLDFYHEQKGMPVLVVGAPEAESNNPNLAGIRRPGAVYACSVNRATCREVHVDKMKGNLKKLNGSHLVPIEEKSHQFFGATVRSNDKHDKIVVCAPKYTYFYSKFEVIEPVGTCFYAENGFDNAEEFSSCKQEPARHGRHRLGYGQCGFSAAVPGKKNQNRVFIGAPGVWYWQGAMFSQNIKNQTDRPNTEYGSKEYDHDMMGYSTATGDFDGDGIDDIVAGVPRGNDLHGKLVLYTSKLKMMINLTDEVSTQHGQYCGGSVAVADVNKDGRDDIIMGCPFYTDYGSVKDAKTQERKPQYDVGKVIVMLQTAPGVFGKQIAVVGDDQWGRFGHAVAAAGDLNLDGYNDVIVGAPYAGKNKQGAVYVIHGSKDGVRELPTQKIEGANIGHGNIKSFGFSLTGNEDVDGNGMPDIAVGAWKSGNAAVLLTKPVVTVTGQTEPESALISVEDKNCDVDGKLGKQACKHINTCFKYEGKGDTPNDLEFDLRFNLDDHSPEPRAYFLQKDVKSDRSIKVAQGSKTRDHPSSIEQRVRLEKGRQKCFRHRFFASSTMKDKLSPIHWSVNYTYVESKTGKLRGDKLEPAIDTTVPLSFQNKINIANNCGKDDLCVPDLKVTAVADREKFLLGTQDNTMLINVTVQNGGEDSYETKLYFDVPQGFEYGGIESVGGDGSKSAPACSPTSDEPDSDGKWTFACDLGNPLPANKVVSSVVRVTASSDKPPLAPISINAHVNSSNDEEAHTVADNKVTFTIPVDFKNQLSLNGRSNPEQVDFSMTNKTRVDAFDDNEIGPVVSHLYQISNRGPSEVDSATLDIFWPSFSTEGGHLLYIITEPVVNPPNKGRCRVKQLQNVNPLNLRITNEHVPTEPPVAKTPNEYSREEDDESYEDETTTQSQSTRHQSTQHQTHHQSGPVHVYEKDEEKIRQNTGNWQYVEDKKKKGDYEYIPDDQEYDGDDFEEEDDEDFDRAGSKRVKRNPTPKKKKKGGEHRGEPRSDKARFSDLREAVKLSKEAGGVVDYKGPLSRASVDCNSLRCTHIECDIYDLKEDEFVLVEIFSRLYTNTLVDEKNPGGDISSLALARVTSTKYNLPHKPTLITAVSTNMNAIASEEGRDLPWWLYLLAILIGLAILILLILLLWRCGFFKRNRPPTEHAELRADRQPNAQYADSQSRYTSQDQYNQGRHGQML
The description is as above.

These are yes or no findings as the source states them, for the method shown. In cells and extracts the contact can be indirect. Some entries that bind do so weakly or less than the wild type. Tags and fused reporters may be left off the sequences shown.

B1: HA::SLT-1::Gaussia luciferase (ligand, UniProt G5EFX6 17-1410)
chain: CPAECVCVDRTVSCVGQQLTEVPQNIPNDTIRLDLQDNEITKIGPNDFSSLMNLKALQLMDNQIVTIHNQSFSSLVFLQKLRLSRNRIRHLPDNVFQNNLKLTHLDLSENDITVVSDAQLQGPEFLEVLNLDKNHIFCLENNVISSWVSLEVLTLNGNRLTTFEEPSNARFRQLDLFNNPWNCDCRLRWMRKWLEKAEGQNKTVCATPLNLQGSSIEILQDKFMTCSGNRKRRYKKTCETAEICPLPCTCTGTTVDCRDSGLTYVPTNLPPSTTEIRLEQNQISSIPSHSFKNLKNLTRLDLSKNIITEIQPKAFLGLHNLHTLVLYGNNITDLKSDTFEGLGSLQLLLLNANQLTCIRRGTFDHVPKLSMLSLYDNDIKSISEVTFQNLTSLSTLHLAKNPLICDCNLQWLAQINLQKNIETSGARCEQPKRLRKKKFATLPPNKFKCKGSESFVSMYADSCFIDSICPTQCDCYGTTVDCNKRGLNTIPTSIPRFATQLLLSGNNISTVDLNSNIHVLENLEVLDLSNNHITFINDKSFEKLSKLRELRLNDNKLHHFSSMVLDEQSNLEILDLSGNNIQCFSSIFFNKATRIREIKVIGNDLLCDCRILPLMSWLRSNSSHSIDIPPCQQFQYSDNESDKQRCAAFPEETCSDDSNLCPPKCSCLDRVVRCSNKNLTSFPSRIPFDTTELYLDANYINEIPAHDLNRLYSLTKLDLSHNRLISLENNTFSNLTRLSTLIISYNKLRCLQPLAFNGLNALRILSLHGNDISFLPQSAFSNLTSITHIAVGSNSLYCDCNMAWFSKWIKSKFIEAGIARCEYPNTVSNQLLLTAQPYQFTCDSKVPTKLATKCDLCLNSPCKNNAICETTSSRKYTCNCTPGFYGVHCENQIDACYGSPCLNNATCKVAQAGRFNCYCNKGFEGDYCEKNIDDCVNSKCENGGKCVDLINSYRCDCPMEYEGKHCEDKLEYCTKKLNPCENNGKCIPINGSYSCMCSPGFTGNNCETNIDDCKNVECQNGGSCVDGILSYDCLCRPGYAGQYCEIPPMMDMEYQKTDACQQSACGQGECVASQNSSDFTCKCHEGFSGPSCDRQMSVGFKNPGAYLALDPLASDGTITMTLRTTSKIGILLYYGDDHFVSAELYDGRVKLVYYIGNFPASHMYSSVKVNDGLPHRISIRTSERKCFLQIDKNPVQIVENSGKSDQLITKGKEMLYIGGLPIEKSQDAKRRFHVKNSESLKGCISSITINEVPINLQQALENVNTEQSCSATVNFCAGIDCGNGKCTNNALSPKGYMCQCDSHFSGEHCDEKRIKCDKQKFRRHHIENECRSVDRIKIAECNGYCGGEQNCCTAVKKKQRKVKMICKNGTTKISTVHIIRQCQCEPTKSVLSEK
Consider B1, for which the binding entry in assay [1] was “binds”; in assay [2] it was “no binding”.

Source of the values: publication PMC4133157.
